# Experimental data as given in the supplement of paper PMC8728848.
# This is one part of the list.
# Assays:
# Assay in all cases: glycan array binding signal (z-score within array); higher = stronger binding
# Conditions in all cases: glycan notation: IUPAC condensed, linker removed
# [1] = target: Gal(b1-3)GalNAc
# Outline: (§1)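 Glycan array binding is given as a within-array Z-score, which can be read as non-binding when negative. The arrays, 3228 of them, came from the Consortium for Functional Glycomics database and were retained only where the protein sequence was available. Z-scores were averaged across arrays of the same protein sequence at different concentrations or buffers and across linkers.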
# [2] = target: Gal(b1-3)GalNAc(a1-3)[Fuc(a1-2)]Gal(b1-4)Glc
# Outline: as §1
# [3] = target: Gal(b1-3)GalNAc(a1-3)[Fuc(a1-2)]Gal(b1-4)GlcNAc
# Outline: as §1
# [4] = target: Gal(b1-3)GalNAc(b1-3)Gal
# Outline: as §1
# [5] = target: Gal(b1-3)GalNAc(b1-3)Gal(a1-4)Gal(b1-4)Glc
# Outline: as §1
# [6] = target: Gal(b1-3)GalNAc(b1-4)Gal(b1-4)Glc
# Outline: as §1
# [7] = target: Gal(b1-3)GalNAc(b1-4)[Neu5Ac(a2-3)]Gal(b1-4)Glc
# Outline: as §1
# [8] = target: Gal(b1-3)GlcNAc
# Outline: as §1
# [9] = target: Gal(b1-3)GlcNAc(a1-3)Gal(b1-4)GlcNAc
# Outline: as §1
# [10] = target: Gal(b1-3)GlcNAc(a1-6)Gal(b1-4)GlcNAc
# Outline: as §1
# [11] = target: Gal(b1-3)GlcNAc(b1-2)Man
# Outline: as §1
# [12] = target: Gal(b1-3)GlcNAc(b1-2)Man(a1-3)[Gal(b1-3)GlcNAc(b1-2)Man(a1-6)]Man(b1-4)GlcNAc(b1-4)GlcNAc
# Outline: as §1
# [13] = target: Gal(b1-3)GlcNAc(b1-2)Man(a1-3)[Gal(b1-3)GlcNAc(b1-2)Man(a1-6)]Man(b1-4)GlcNAc(b1-4)[Fuc(a1-6)]GlcNAc
# Outline: as §1
# [14] = target: Gal(b1-3)GlcNAc(b1-2)Man(a1-3)[GlcNAc(b1-4)][Gal(b1-3)GlcNAc(b1-2)Man(a1-6)]Man(b1-4)GlcNAc(b1-4)GlcNAc
# Outline: as §1
# [15] = target: Gal(b1-3)GlcNAc(b1-2)[Gal(b1-3)GlcNAc(b1-6)]Man(a1-6)[Gal(b1-3)GlcNAc(b1-2)Man(a1-3)]Man(b1-4)GlcNAc(b1-4)GlcNAc
# Outline: as §1
# [16] = target: Gal(b1-3)GlcNAc(b1-3)Gal(b1-3)GlcNAc
# Outline: as §1
# [17] = target: Gal(b1-3)GlcNAc(b1-3)Gal(b1-4)Glc
# Outline: as §1
# [18] = target: Gal(b1-3)GlcNAc(b1-3)Gal(b1-4)GlcNAc
# Outline: as §1
# [19] = target: Gal(b1-3)GlcNAc(b1-3)Gal(b1-4)GlcNAc(b1-2)Man(a1-3)[Gal(b1-3)GlcNAc(b1-3)Gal(b1-4)GlcNAc(b1-2)Man(a1-6)]Man(b1-4)GlcNAc(b1-4)GlcNAc
# Outline: as §1
# [20] = target: Gal(b1-3)GlcNAc(b1-3)Gal(b1-4)GlcNAc(b1-2)[Gal(b1-3)GlcNAc(b1-3)Gal(b1-4)GlcNAc(b1-6)]Man(a1-6)[Gal(b1-3)GlcNAc(b1-3)Gal(b1-4)GlcNAc(b1-2)Man(a1-3)]Man(b1-4)GlcNAc(b1-4)[Fuc(a1-6)]GlcNAc
# Outline: as §1
# [21] = target: Gal(b1-3)GlcNAc(b1-3)Gal(b1-4)GlcNAc(b1-3)Gal(b1-4)GlcNAc(b1-2)[Gal(b1-3)GlcNAc(b1-3)Gal(b1-4)GlcNAc(b1-3)Gal(b1-4)GlcNAc(b1-6)]Man(a1-6)[Gal(b1-3)GlcNAc(b1-3)Gal(b1-4)GlcNAc(b1-3)Gal(b1-4)GlcNAc(b1-2)Man(a1-3)]Man(b1-4)GlcNAc(b1-4)[Fuc(a1-6)]GlcNAc
# Outline: as §1
# [22] = target: Gal(b1-3)GlcNAc(b1-3)Gal(b1-4)GlcNAc(b1-6)[Gal(b1-3)GlcNAc(b1-3)]Gal(b1-4)Glc
# Outline: as §1
# [23] = target: Gal(b1-3)GlcNAc(b1-3)Gal(b1-4)[Fuc(a1-3)]GlcNAc
# Outline: as §1
# [24] = target: Gal(b1-3)GlcNAc(b1-3)Gal(b1-4)[Fuc(a1-3)]GlcNAc(b1-6)[Gal(b1-3)GlcNAc(b1-3)]Gal(b1-4)Glc
# Outline: as §1
# [25] = target: Gal(b1-3)GlcNAc(b1-3)GalNAc
# Outline: as §1
# [26] = target: Gal(b1-3)GlcNAc(b1-6)Gal(b1-4)GlcNAc
# Outline: as §1
# [27] = target: Gal(b1-3)GlcNAc(b1-6)GalNAc
# Outline: as §1
# [28] = target: Gal(b1-3)GlcNAc(b1-6)[Gal(b1-3)]GalNAc
# Outline: as §1
# [29] = target: Gal(b1-3)GlcNAc6S
# Outline: as §1
# [30] = target: Gal(b1-3)[Fuc(a1-4)]GlcNAc
# Outline: as §1
# [31] = target: Gal(b1-3)[Fuc(a1-4)]GlcNAc(b1-2)Man
# Outline: as §1
# [32] = target: Gal(b1-3)[Fuc(a1-4)]GlcNAc(b1-2)Man(a1-3)[Gal(b1-3)[Fuc(a1-4)]GlcNAc(b1-2)Man(a1-6)]Man(b1-4)GlcNAc(b1-4)GlcNAc
# Outline: as §1
# [33] = target: Gal(b1-3)[Fuc(a1-4)]GlcNAc(b1-2)Man(a1-3)[Gal(b1-3)[Fuc(a1-4)]GlcNAc(b1-2)Man(a1-6)]Man(b1-4)GlcNAc(b1-4)[Fuc(a1-6)]GlcNAc
# Outline: as §1
# [34] = target: Gal(b1-3)[Fuc(a1-4)]GlcNAc(b1-3)Gal(b1-3)[Fuc(a1-4)]GlcNAc
# Outline: as §1
# [35] = target: Gal(b1-3)[Fuc(a1-4)]GlcNAc(b1-3)Gal(b1-4)GlcNAc
# Outline: as §1
# [36] = target: Gal(b1-3)[Fuc(a1-4)]GlcNAc(b1-3)Gal(b1-4)[Fuc(a1-3)]GlcNAc
# Outline: as §1
# [37] = target: Gal(b1-3)[Fuc(a1-4)]GlcNAc(b1-6)GalNAc
# Outline: as §1
# [38] = target: Gal(b1-3)[GlcNAc(b1-6)]GalNAc
# Outline: as §1
# [39] = target: Gal(b1-3)[Neu5Ac(a2-6)]GalNAc
# Outline: as §1
# [40] = target: Gal(b1-3)[Neu5Ac(a2-6)]GlcNAc(b1-4)Gal(b1-4)Glc
# Outline: as §1
# [41] = target: Gal(b1-3)[Neu5Ac(a2-6)]GlcNAc(b1-6)Gal(b1-4)Glc
# Outline: as §1
# [42] = target: Gal(b1-3)[Neu5Ac(b2-6)]GalNAc
# Outline: as §1
# [43] = target: Gal(b1-4)Gal
# Outline: as §1
# [44] = target: Gal(b1-4)GalNAc(a1-3)[Fuc(a1-2)]Gal(b1-4)GlcNAc
# Outline: as §1
# [45] = target: Gal(b1-4)GalNAc(b1-3)[Fuc(a1-2)]Gal(b1-4)GlcNAc
# Outline: as §1
binder,measurement,setting,value
"HPAIIITrx (Helix pomatia), Q1KM18 (protein) MLFVTIISLGLLAIVHGQCALKTIAFSAAIDREQTFDANQVVIYDIVITNHGNAYDNSTGLFTAPVDGMYSFQLNLLTIKEKEGWLELVHNGQLKVSVYAKQDSTYDSSSNSVIIKMKEGDRVNVRAHKKSGLFGRDDELYNTFSGHFLSGL",glycan array binding signal (z-score),[1],-0.149
same,glycan array binding signal (z-score),[2],-0.608
same,glycan array binding signal (z-score),[3],-0.475
same,glycan array binding signal (z-score),[4],-0.35
same,glycan array binding signal (z-score),[5],-0.323
same,glycan array binding signal (z-score),[6],-0.253
same,glycan array binding signal (z-score),[7],-0.37
same,glycan array binding signal (z-score),[8],-0.149
same,glycan array binding signal (z-score),[9],-0.471
same,glycan array binding signal (z-score),[10],-0.46
same,glycan array binding signal (z-score),[11],1.45
same,glycan array binding signal (z-score),[12],-0.388
same,glycan array binding signal (z-score),[13],-0.301
same,glycan array binding signal (z-score),[14],-0.29
same,glycan array binding signal (z-score),[15],-0.132
same,glycan array binding signal (z-score),[16],-0.379
same,glycan array binding signal (z-score),[17],-0.309
same,glycan array binding signal (z-score),[18],-0.518
same,glycan array binding signal (z-score),[19],-0.319
same,glycan array binding signal (z-score),[20],0.381
same,glycan array binding signal (z-score),[21],0.041
same,glycan array binding signal (z-score),[22],-0.455
same,glycan array binding signal (z-score),[23],-0.391
same,glycan array binding signal (z-score),[24],-0.411
same,glycan array binding signal (z-score),[25],-0.344
same,glycan array binding signal (z-score),[26],-0.461
same,glycan array binding signal (z-score),[27],-0.368
same,glycan array binding signal (z-score),[28],-0.238
same,glycan array binding signal (z-score),[29],-0.279
same,glycan array binding signal (z-score),[30],-0.091
same,glycan array binding signal (z-score),[31],0.062
same,glycan array binding signal (z-score),[32],0.733
same,glycan array binding signal (z-score),[33],0.11
same,glycan array binding signal (z-score),[34],0.166
same,glycan array binding signal (z-score),[35],0.014
same,glycan array binding signal (z-score),[36],-0.35
same,glycan array binding signal (z-score),[37],-0.267
same,glycan array binding signal (z-score),[38],-0.419
same,glycan array binding signal (z-score),[39],-0.314
same,glycan array binding signal (z-score),[40],-0.43
same,glycan array binding signal (z-score),[41],-0.165
same,glycan array binding signal (z-score),[42],-0.404
same,glycan array binding signal (z-score),[43],-0.094
same,glycan array binding signal (z-score),[44],-0.357
same,glycan array binding signal (z-score),[45],-0.479
